Data from PubChem BioAssay AID463173 (ICCB-Longwood Screening Facility, Harvard Medical School, 2010).
The whole screen tested about 52,000 compounds, of which about 1,700 (3.3%) were called active. Cut-off read from the data, not from the text of the source: active = survival mostly below about 52% (no sharp cut-off); inactive = mostly above about 56%. This is one part of the list.

tested on: Wild type; test: S. aureus survival, RN4220 and DeltatarO strains – OD600, teichoic acid synthesis inhibitors, primary screen (AID 463173); details: S. aureus RN4220 wild type/DeltatarO growth, OD600, 18 h, stronger effect = lower value, screened at 18.75 µg/mL (by protocol)

| Structure (SMILES) | survival |
| --- | --- |
| CCN(CC)c1ccc(C2Nc3ccccc3-c3cc(C)nn32)cc1 (stereo not drawn) | active: -1% |
| Cc1ccc(S(=O)(=O)c2nc(-c3ccc(F)cc3)oc2N2CCN(c3ccccc3)CC2)cc1 | inactive: 115% |
| O=S(=O)(c1ccccc1)c1ccc(N2CCCCC2)cc1 | inactive: 103% |
| COc1ccc(C2(CNC(=O)C(=O)Nc3ccccc3C)CCCC2)cc1OC | inactive: 86% |
| COc1ccc(CNC(=O)c2cccn2-c2nnc(N3CCCC3)s2)c(OC)c1 | inactive: 81% |
| CCCCN(CCCNC(=O)c1cc(Nc2ccccc2OC)nc2ccccc12)c1ccccc1 | inactive: 89% |
| CCCC12CCC(C(=O)O)(CC1)CC2 | inactive: 118% |
| Cc1ccc(OCCCn2c(-c3ccc(Cl)cc3)nc3ccccc3c2=O)c(C)c1 | inactive: 67% |
| Clc1ccc(-n2c(Cc3ccccc3)nnc2SCc2nc(-c3cccs3)no2)cc1 | inactive: 91% |
| COc1ccc(NC(=O)c2oc3ccccc3c2NC(=O)C2CCCCC2)c(OC)c1 | inactive: 78% |
| Nc1c(C(=O)Nc2ccccc2)sc2nc3c(cc12)CN(Cc1ccccc1)CC3 | inactive: 64% |
| Cc1ccc(NC(=O)C2CCCN(S(=O)(=O)c3c(C)noc3C)C2)cc1 (stereo not drawn) | inactive: 126% |
| CCOC(=O)c1scc(-c2ccc(C)cc2)c1S(=O)(=O)Nc1cc(OC)ccc1OC | inactive: 76% |
| CCOc1cc(C#N)c(-n2nnc3c(sc4nc(C)cc(C)c43)c2=O)cc1OCC | inactive: 71% |
| CCCCN(C)C(=O)c1ccc2c(c1)N(Cc1cccc(F)c1)C(=O)c1ccccc1S2 | inactive: 69% |
| Cc1cc(C)c(/C=C/c2onc(C)c2S(=O)(=O)N2CCC(C(=O)NCCc3ccccc3)CC2)c(C)c1 | inactive: 70% |
| Cc1cccc(N(CC(=O)NCCSCc2ccccc2)S(=O)(=O)c2ccccc2)c1C | inactive: 73% |
| O=C(Cn1c(=O)c2cccn2c2ccccc21)NCc1ccccc1F | inactive: 113% |
| COC(=O)c1ccc(NC(=O)Cn2cnc3c2c(=O)n(C)c(=O)n3C)cc1 | inactive: 73% |
| CCc1cccc(C)c1NC(=O)C1CCCN1S(=O)(=O)c1cccc2nsnc12 (stereo not drawn) | inactive: 65% |
| CCCC(=O)N1CCN(c2nc3ccc(F)cc3s2)CC1 | inactive: 73% |
| CCn1c(=O)c(=O)n(CC)c2cc(S(=O)(=O)Nc3ccc(C)cc3)ccc21 | inactive: 111% |

| Structure (SMILES) | survival |
| --- | --- |
| O=C(Nc1ccccc1)c1snc2c(=O)[nH]cnc12 | inactive: 107% |
| Cc1ccc(C(=O)c2cn(Cc3ccccc3)c3nc(C)ccc3c2=O)cc1 | inactive: 74% |
| Cc1nc(N2CCCC2)c2c(C(=O)N3CCN(c4cc(Cl)ccc4C)CC3)c(C)oc2n1 | inactive: 99% |
| COc1cc(S(=O)(=O)N(Cc2cccnc2)Cc2ccco2)ccc1-n1cnnn1 | inactive: 107% |
| CCN(CC)CCNc1nc2c(c(=O)[nH]c(=O)n2C)n1Cc1ccccc1Cl | inactive: 110% |
| COc1cc(OC)c(NC(=O)c2cc3c(=O)oc4ccc(C)cc4c3s2)cc1Cl | inactive: 87% |
| Cn1c(CCCCN)nc2ccccc21 | inactive: 98% |
| Cc1ccc(-n2ncc3c(NCCO)ncnc32)cc1Cl | inactive: 69% |
| Cc1cc(NC(=O)c2cc(-c3ccc(Cl)cc3)on2)n(-c2ccccc2)n1 | inactive: 81% |
| COc1ccc(-c2cc(C(=O)Nc3cccnc3)no2)cc1OC | inactive: 66% |
| CC(C)c1nc2sc3c(c2c(=O)n1N)CC(C)(C)OC3 | inactive: 105% |
| COc1ccc(CNC(=O)Cc2ccc(NC(=O)N3CCSc4ncccc43)cc2)cc1OC | inactive: 75% |
| COC(=O)c1cc2oc3ccccc3c2n1CC(=O)Nc1ccc(C)c(F)c1 | inactive: 86% |
| COc1ccc(S(=O)(=O)Nc2cccc(-c3ccc(N4CCC(C)CC4)nn3)c2)c(OC)c1 | inactive: 63% |
| CCOc1ccc(NC(=O)Cn2c(=O)n(-c3cccc(Cl)c3)c(=O)c3c2c2cc(C)ccc2n3C)cc1 | inactive: 139% |
| COc1cc(NC(=O)c2ccc3oc(=O)c(S(=O)(=O)c4ccccc4)cc3c2)cc(OC)c1 | inactive: 84% |
| COc1c(C)cc(Br)cc1C(=O)Nc1ccc(-c2nc3ncccc3o2)cc1 | inactive: 58% |
| Cc1cccc(C(=O)N2CCc3cc(CNC(=O)COc4ccc(Cl)cc4)ccc32)c1 | inactive: 53% |
| Cc1cc(C(F)(F)F)c2c(N)c(C#N)sc2n1 | inactive: 116% |
| CCOc1cccc(C2c3[nH]c4ccccc4c3CCN2C(=O)CSc2ccccc2)c1 (stereo not drawn) | inactive: 83% |
| O=C(CN1C(=O)c2ccccc2C1=O)Nc1ccccc1C(=O)N1CCCC1 | inactive: 104% |
| COc1ccc(NC(=O)Cn2c(=O)n(CCc3ccccc3)c(=O)c3c4c(sc32)CCCC4)cc1 | inactive: 97% |

| Structure (SMILES) | survival |
| --- | --- |
| Cc1ccc(N2C(=O)CSC23C(=O)N(Cc2ccccc2F)c2ccccc23)cc1F (stereo not drawn) | inactive: 77% |
| CCOC(=O)c1c(NC(=O)c2nc(SCC)ncc2Cl)sc2c1CCCC2 | inactive: 91% |
| CC(C)c1ccc(NC(=O)C2CCN(S(=O)(=O)c3cccc4nonc34)CC2)cc1 | inactive: 114% |
| Cc1ccccc1Nc1c(-c2ccc(Cl)cc2)nc2c(C)cccn12 | inactive: 73% |
| CCSc1nnc2c(n1)OC(c1cc(OC)c(OC)c(OC)c1)Nc1ccccc1-2 (stereo not drawn) | inactive: 65% |
| CC(C)=NNC(=O)c1nnn(-c2nonc2N)c1CN1CCOCC1 | inactive: 108% |
| CCOC(=O)c1c(C)[nH]c(C)c1S(=O)(=O)NCC(=O)Nc1ccc(C)c(N(C)C)c1 | inactive: 53% |
| CCOc1cc(CNC(=O)Cn2c(=O)c3cccn3c3ccc(F)cc32)cc(OCC)c1OCC | inactive: 97% |
| COc1cc2c(=O)c(C(=O)c3ccc(C)c(C)c3)cn(Cc3ccc(F)cc3)c2cc1OC | inactive: 85% |
| CCOc1ccccc1NC(=O)c1ccc2c(c1)CCN2S(=O)(=O)c1ccc(C)cc1 | inactive: 97% |
| Cc1ccccc1NC(=O)CSc1cn(CC(=O)N2CCCCCC2)c2ccccc12 | inactive: 91% |
| Cc1nc(SCC(=O)Nc2ccccc2C)cc(-c2ccccc2)n1 | inactive: 78% |
| CCC(CC)c1nn2c(=O)cc(COc3ccc(NC(=O)c4ccccc4C)cc3)nc2s1 | inactive: 88% |
| Cc1ccccc1NC(=O)c1ccc2[nH]c(C)c(C)c2c1 | inactive: 124% |
| CCC1CN(S(=O)(=O)c2cc(-c3cc(C)no3)ccc2C)c2cc(Cl)ccc2O1 (stereo not drawn) | inactive: 70% |
| COc1cc(NC(=O)CC2C(=O)OCCN2Cc2ccccc2)cc(OC)c1 (stereo not drawn) | inactive: 140% |
| COc1cc(NS(=O)(=O)c2ccc(NC(=O)c3cccc(F)c3)cc2)nc(OC)n1 | inactive: 93% |
| COc1ccc(C(=O)NCC(c2cccnc2)N2CCN(c3ccccc3)CC2)cc1 (stereo not drawn) | inactive: 84% |
| CCCc1nn2c(=O)cc(COC(=O)c3cccc(NC(=O)c4cccs4)c3)nc2s1 | inactive: 73% |
| CCc1cccc(C)c1NC(=O)CCS(=O)(=O)c1cc(Br)cc2c1N(C(=O)C1CC1)CC2 | inactive: 85% |
| COc1cccc(Cn2c(=O)cc(C)c3c(C)nn(C)c32)c1 | inactive: 85% |
| O=C(CCCCn1c(=O)c2ccccc2n(CC(=O)Nc2cccc(C(F)(F)F)c2)c1=O)NCc1ccc2c(c1)OCO2 | inactive: 86% |

| Structure (SMILES) | survival |
| --- | --- |
| O=C(Nc1ccc(C(=O)OCc2cc(=O)n3c4c(sc3n2)CCCC4)cc1)c1ccc(F)cc1 | inactive: 78% |
| CCc1nn2c(-c3ccccc3OC)ccnc2c1-c1ccccc1 | active: -12% |
| Cc1c(C(=O)NCc2ccc(Cl)cc2)sc2nc3n(c(=O)c12)CCCCC3 | inactive: 81% |
| COc1ccc(S(=O)Cc2ccc(C(=O)N3CCN(c4cccc(C)c4C)CC3)o2)cc1 (stereo not drawn) | inactive: 77% |
| Cc1c(Cl)cccc1NC(=O)Cn1c(=O)n(Cc2ccco2)c(=O)c2sc3ccccc3c21 | inactive: 130% |
| Cc1ccc(-n2nnc(-c3nc(-c4cccs4)no3)c2N)cc1C | inactive: 100% |
| Cc1ccc(Cl)cc1NC(=O)COC(=O)CC(C)(C)CC1=NS(=O)(=O)c2ccccc2N1 | inactive: 56% |
| O=C(NCCc1ccccc1)C(=O)NCC(c1ccco1)S(=O)(=O)c1cccs1 (stereo not drawn) | inactive: 75% |
| Cc1ccccc1NC(=O)c1ccc(F)c(S(=O)(=O)N2CCN(c3ccccc3F)CC2)c1 | inactive: 82% |
| COc1ccc(-c2nc(CSc3nncn4c3cc3oc(C)cc34)c(C)o2)cc1 | inactive: 89% |
| CCOC(=O)c1cnc2ccccc2c1NCCCN(C)C | inactive: 112% |
| COc1cc(NC(=O)CN2C(=O)c3ccccc3Sc3ccc(C(=O)N4CCCC4)cc32)cc(OC)c1 | inactive: 81% |
| COc1ccc(OC)c(CCNC(=O)c2ccc3c(c2)c(C)c(C)n3Cc2ccccc2)c1 | inactive: 85% |
| CCOC(=O)c1ccccc1NC(=O)CN1CCCN(Cc2cc(C)ccc2C)S1(=O)=O | inactive: 131% |
| CCOC(=O)c1[nH]c2ccccc2c1NC(=O)c1ccccc1F | inactive: 78% |
| CC(C)CC(C(N)=O)N1C(=O)c2ccccc2C1=O (stereo not drawn) | inactive: 108% |
| CCN1CCN(CCCNC(=O)CS(=O)(=O)Cc2nc(-c3cccc(OC)c3)oc2C)CC1 | inactive: 81% |
| Cc1oc2ncnc(N3CCCCC3)c2c1C(=O)NCC1CCN(Cc2cccc(F)c2)CC1 | active: -6% |
| COc1cccc2c1cc1c(=O)n(CC(=O)N3CCCCC3)nc(C)n12 | inactive: 88% |
| Cc1ccc(C(=O)Nc2ccc(C(=O)O)cc2)cc1S(=O)(=O)Nc1ccccc1 | inactive: 73% |
| CCC(C)NS(=O)(=O)c1ccc(N2CCCCS2(=O)=O)cc1 (stereo not drawn) | inactive: 135% |
| COc1ccc(C)cc1NC(=O)C1CCCN(S(=O)(=O)c2ccc3c(c2)CCCN3C(C)=O)C1 (stereo not drawn) | inactive: 84% |
